According to PubChem BioAssay (NCI):
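The compound was tested at five concentrations on cells cultured in 96-well plates, with a 48-hour exposure period. At the TGI there is no net growth.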 Not every entry of the source has a single result; some have several. This list holds those alone. The source may hold further records. Records of one sample usually come from different ranges of test concentrations, which the source does not state; some values may only mark the edge of a range.

Legend:
SF-539 CNS = assay: inhibition of tumour cell growth, NCI panel, 48 h
SR leukemia = assay: inhibition of tumour cell growth, NCI panel, 48 h

Compound: CCC1(O)C(=O)OCc2c1cc1n(c2=O)Cc2cc3ccc(C=O)cc3nc2-1 (configuration not stated)
- TGI (SF-539 CNS): 50 µM and 2.83 µM
- TGI (SR leukemia): 477 nM and < 30.1 nM
